{"source": "patent US20080175871A1", "about": "“ELICITING IMPROVED IMMUNE RESPONSES” (THE BINDING SITE LIMITED, priority 1999, published 2008)", "key": {"[1]": {"tested_on": "sheep", "assay": "Immunisation of sheep with eight-branch multi-antigenic peptides; test bleeds assessed by radial immunodiffusion (Mancini)", "format": "in vivo", "settings": "for antibody response: quality (strength) of the precipitation, correlated by the avidity of the antibody: scored as weak, moderate or strong, 500 μg prime in FCA, 200 μg boosts in FIA at six weeks", "procedure": "The following peptides had been used, with some success, as eight-branch multi-antigenic-peptides for raising antibodies in sheep. Modifying the peptides by inclusion of one or more random substitutions improved the antibody response produced.\nAll immunisations were performed in a standard manner with 500 μg of peptide in Freund's complete adjuvant for prime and 200 μg in Freund's incomplete adjuvant for boosts at six weeks. Test bleeds were assessed by radial immunodiffusion (Mancini) so the quality (strength) of the precipitation is correlated by the avidity of the antibody (scored as weak, moderate or strong) while the diameter of the precipitation is inversely proportional to the titre of the antibody."}, "[2]": {"molecular_target": "T1, native protein (Myoglobin) (Homo sapiens, UniProt P02144)", "T1 construct": "from tissue", "T1 sequence (P02144 1-154)": "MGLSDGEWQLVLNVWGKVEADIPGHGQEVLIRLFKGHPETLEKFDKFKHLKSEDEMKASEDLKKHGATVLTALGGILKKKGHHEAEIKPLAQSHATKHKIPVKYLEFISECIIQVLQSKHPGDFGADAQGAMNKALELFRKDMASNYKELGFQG", "assay": "Immunohistology: binding of the raised antibodies to the native protein", "settings": "antibodies raised in sheep"}, "[3]": {"settings": "after the first boost, one sheep"}, "[4]": {"settings": "after the first boost, one sheep, diameter inversely proportional to titre"}}, "note": "No end group written: not given here.", "data": [{"substance": "DPRFQDSSSSKAPPPSLPSPSRLP (DPRFQDSSSSKAPPPSLPSPSRLP; also: eight-branch multi-antigenic peptide; listed as Homo sapiens) [SEQ ID NO: 20, HGC#2 unmodified peptide, eight-branch multi-antigenic peptide (control), reference compound]", "values": [{"measurement": "antibody response: quality (strength) of the precipitation, correlated by the avidity of the antibody", "setting": "[1]; sheep test bleeds", "result": "no antibody response"}]}, {"substance": "G P X I C T T R G V S S X Q Q [SEQ ID NO: 17]", "values": [{"measurement": "antibody response: quality (strength) of the precipitation", "setting": "[1]; [3]", "result": "strong"}, {"measurement": "diameter of the precipitation", "setting": "[1]; [4]", "result": 9, "unit": "mm"}]}, {"substance": "QSKHPGDFGADAQGAMNKALQVXQSKHPDFGADAQGAMNKAL [SEQ ID NO: 22, Myoglobin peptide extended with inclusion of a randomised position (twenty amino acids)]", "values": [{"measurement": "antibody response compared to unmodified / control peptide or other pool size (in words)", "setting": "[1]; sheep", "result": "improved the response"}, {"measurement": "diameter of the precipitation", "setting": "[1]; sheep test bleeds, diameter inversely proportional to the titre of the antibody", "result": 8.4, "unit": "mm"}, {"measurement": "binding of the antibodies produced to the native protein in immunohistology", "setting": "[2]", "result": "bind to the native protein"}]}, {"substance": "FKQWXENPNNNPIHPNLRSTV [SEQ ID NO: 15]", "values": [{"measurement": "antibody response: quality (strength) of the precipitation", "setting": "[1]; [3]", "result": "strong"}, {"measurement": "diameter of the precipitation against the unmodified peptide", "setting": "[1]; [4]", "result": 9, "unit": "mm"}]}, {"substance": "G P N I C T T R G V S S C Q Q (GPNICTTRGVSSCQQ; cysteine pairing not given here; also: eight-branch multi-antigenic peptide; listed as Homo sapiens) [SEQ ID NO: 16, CD61 unmodified peptide, eight-branch multi-antigenic peptide (control), reference compound]", "values": [{"measurement": "antibody response: quality (strength) of the precipitation, correlated by the avidity of the antibody", "setting": "[1]; sheep test bleeds", "result": "no antibody response or, at best, weak"}]}, {"substance": "FKQWMENPNNNPIHPNLRSTV (FKQWMENPNNNPIHPNLRSTV; also: eight-branch MAP core; listed as Homo sapiens) [SEQ ID NO: 14, CD13 unmodified peptide, eight-branch multi-antigenic peptide (control), reference compound]", "values": [{"measurement": "mean diameter of the precipitation", "setting": "[1]; even after three reboosts in two of the animals, diameter inversely proportional to titre", "result": 11.5, "unit": "mm"}, {"measurement": "antibody response: quality (strength) of the precipitation", "setting": "[1]; three different sheep, even after three reboosts in two of the animals", "result": "no antibody response or, at best, weak"}]}]}
